Data from the antibiotic and cytotoxicity screens of Wong et al. (2023).
Some of the results follow.

Legend:
[1] = test system: HSkMC (human skeletal muscle cells); test: cytotoxicity call (relative viability < 0.9); settings: 10 µM
[2] = test system: HepG2; test: cytotoxicity call (relative viability < 0.9); settings: 10 µM
[3] = test system: S. aureus RN4220; test: growth inhibition call (relative growth <= 0.2); settings: 50 µM

Structure (SMILES): Cc1noc(C)c1NC(=O)Nc1ccc2c(c1)C(=O)N([C@H](C)CO)C[C@@H](C)[C@@H](CN(C)Cc1ccc(C(F)(F)F)cc1)O2
- cytotoxicity call [1]: inactive
- cytotoxicity call [2]: inactive
- growth inhibition call [3]: inactive

Structure (SMILES): CCCNC(=O)N(C)C[C@@H]1Oc2cc(C#Cc3cccc(F)c3)ccc2S(=O)(=O)N([C@H](C)CO)C[C@@H]1C
- cytotoxicity call [1]: inactive
- cytotoxicity call [2]: inactive
- growth inhibition call [3]: inactive

Structure (SMILES): C[C@H]1CN([C@@H](C)CO)C(=O)c2cc(/C=C/c3ccccc3)cnc2O[C@@H]1CN(C)C(=O)C1CCOCC1
- cytotoxicity call [1]: inactive
- cytotoxicity call [2]: inactive
- growth inhibition call [3]: inactive

Structure (SMILES): CC(=O)N1[C@H](CO)[C@@H](c2ccccc2)C12CN(C(=O)CN1CCOCC1)C2
- cytotoxicity call [1]: inactive
- cytotoxicity call [2]: inactive
- growth inhibition call [3]: inactive

Structure (SMILES): CCCCCCO[C@@H](C)c1cccc(-c2csc(NC(=O)c3cc(Cl)c(/C=C(\C)C(=O)O)c(Cl)c3)n2)c1OC
- cytotoxicity call [1]: active
- cytotoxicity call [2]: inactive
- growth inhibition call [3]: inactive

Structure (SMILES): CCO[C@@H]1OC(C(=O)N2CCN(Cc3ccc4c(c3)OCO4)CC2)=C[C@H](c2ccc(C(F)(F)F)cc2)[C@H]1CCCOC(=O)NCCCCCC(=O)NO
- cytotoxicity call [1]: inactive
- cytotoxicity call [2]: inactive
- growth inhibition call [3]: inactive

Structure (SMILES): C[C@@H]1CCCCO[C@@H](CN(C)C(=O)C2CCCCC2)[C@@H](C)CN([C@@H](C)CO)C(=O)c2cc(NC(=O)Nc3ccc4c(c3)OCO4)ccc2O1
- cytotoxicity call [1]: inactive
- cytotoxicity call [2]: inactive
- growth inhibition call [3]: inactive

Structure (SMILES): Cc1cc(=O)n(CNC(=O)c2ccco2)cn1
- cytotoxicity call [1]: inactive
- cytotoxicity call [2]: inactive
- growth inhibition call [3]: inactive

Structure (SMILES): CN(C)C(=O)c1ccc(CO)cc1
- cytotoxicity call [1]: inactive
- cytotoxicity call [2]: inactive
- growth inhibition call [3]: inactive

Structure (SMILES): C[C@H](CO)N1C[C@H](C)[C@H](CN(C)C(=O)Nc2ccc(C(F)(F)F)cc2)Oc2ccc(NC(=O)Cn3cnnn3)cc2CC1=O
- cytotoxicity call [1]: inactive
- cytotoxicity call [2]: inactive
- growth inhibition call [3]: inactive

Structure (SMILES): C[C@@H]1CN([C@H](C)CO)C(=O)c2cc(NC(=O)Nc3ccc(F)cc3)ccc2O[C@@H](C)CCCCO[C@H]1CN(C)S(=O)(=O)c1ccc(Cl)cc1
- cytotoxicity call [1]: inactive
- cytotoxicity call [2]: active
- growth inhibition call [3]: inactive

Structure (SMILES): CC(C)NC(=O)N(C)C[C@@H]1OCCCC[C@H](C)Oc2ccc(NS(C)(=O)=O)cc2C(=O)N([C@H](C)CO)C[C@@H]1C
- cytotoxicity call [1]: inactive
- cytotoxicity call [2]: inactive
- growth inhibition call [3]: inactive

Structure (SMILES): C[C@@H]1CCCCO[C@H](CN(C)CC2CC2)[C@H](C)CN([C@@H](C)CO)C(=O)c2cc(NC(=O)Nc3ccc(C(F)(F)F)cc3)ccc2O1
- cytotoxicity call [1]: active
- cytotoxicity call [2]: active
- growth inhibition call [3]: active

Structure (SMILES): CC(C)NC(=O)N(C)C[C@H]1OCCCC[C@@H](C)Oc2ccc(NC(=O)C3CCCCC3)cc2C(=O)N([C@H](C)CO)C[C@@H]1C
- cytotoxicity call [1]: inactive
- cytotoxicity call [2]: inactive
- growth inhibition call [3]: inactive

Structure (SMILES): C[C@H]1CN([C@@H](C)CO)C(=O)c2cccc(NC(=O)Nc3ccc4c(c3)OCO4)c2O[C@@H]1CN(C)Cc1ccc(Oc2ccccc2)cc1
- cytotoxicity call [1]: inactive
- cytotoxicity call [2]: inactive
- growth inhibition call [3]: inactive

Structure (SMILES): C[C@@H]1CCCCO[C@@H](CN(C)Cc2ccc3c(c2)OCO3)[C@H](C)CN([C@H](C)CO)C(=O)c2cc(NC(=O)C3CCCCC3)ccc2O1
- cytotoxicity call [1]: inactive
- cytotoxicity call [2]: inactive
- growth inhibition call [3]: inactive

Structure (SMILES): Cn1c(=O)c2c(ncn2CCCN)n(C)c1=O
- cytotoxicity call [1]: inactive
- cytotoxicity call [2]: inactive
- growth inhibition call [3]: inactive

Structure (SMILES): C[C@H]1CN([C@@H](C)CO)C(=O)Cc2cc(NC(=O)Cn3cnnn3)ccc2O[C@@H]1CN(C)S(=O)(=O)c1ccc(Cl)cc1
- cytotoxicity call [1]: inactive
- cytotoxicity call [2]: inactive
- growth inhibition call [3]: inactive

Structure (SMILES): C[C@@H]1CN([C@H](C)CO)C(=O)c2cc(-c3ccncc3)cnc2O[C@H]1CN(C)C(=O)Nc1ccc2c(c1)OCO2
- cytotoxicity call [1]: inactive
- cytotoxicity call [2]: inactive
- growth inhibition call [3]: inactive

Structure (SMILES): C=CCC[C@@H](Cc1ccc(F)cc1)C(=O)OC[C@@H]1CCCN1C(=O)[C@H](CC=C)CC(=O)N(CCO)Cc1ccccc1
- cytotoxicity call [1]: inactive
- cytotoxicity call [2]: inactive
- growth inhibition call [3]: inactive

Structure (SMILES): C[C@@H]1CN([C@@H](C)CO)C(=O)c2ccccc2-c2ccccc2CO[C@H]1CN(C)C(=O)Nc1ccc(-c2ccccc2)cc1
- cytotoxicity call [1]: inactive
- cytotoxicity call [2]: inactive
- growth inhibition call [3]: inactive

Structure (SMILES): CC(C)NC(=O)N(C)C[C@H]1Oc2ccc(NS(=O)(=O)c3ccc(Cl)cc3)cc2CC(=O)N([C@@H](C)CO)C[C@H]1C
- cytotoxicity call [1]: inactive
- cytotoxicity call [2]: inactive
- growth inhibition call [3]: inactive

Structure (SMILES): CC(C=CC=C(C)C=CC1=C(C)C(=O)C(O)CC1(C)C)=CC=CC=C(C)C=CC=C(C)C=CC1=C(C)C(=O)C(O)CC1(C)C (stereo not given)
- cytotoxicity call [1]: inactive
- cytotoxicity call [2]: inactive
- growth inhibition call [3]: inactive

Structure (SMILES): COc1ccc(S(=O)(=O)Nc2cccc3c2O[C@H](CN(C)S(=O)(=O)c2ccc(OC)cc2)[C@@H](C)CN([C@H](C)CO)C3=O)cc1
- cytotoxicity call [1]: inactive
- cytotoxicity call [2]: inactive
- growth inhibition call [3]: inactive

Structure (SMILES): C[C@@H]1CN([C@@H](C)CO)S(=O)(=O)c2ccc(-c3ccc(C#N)cc3)cc2O[C@H]1CN(C)C(=O)CN(C)C
- cytotoxicity call [1]: inactive
- cytotoxicity call [2]: inactive
- growth inhibition call [3]: inactive

Structure (SMILES): C[C@H](CO)N1C[C@H](C)[C@@H](CN(C)Cc2ccc(Oc3ccccc3)cc2)Oc2c(NC(=O)c3ccncc3)cccc2C1=O
- cytotoxicity call [1]: inactive
- cytotoxicity call [2]: inactive
- growth inhibition call [3]: inactive

Structure (SMILES): C[C@H](CO)N1C[C@H](C)[C@H](CN(C)S(=O)(=O)c2ccccc2)Oc2ccc(NS(=O)(=O)c3ccc(F)cc3)cc2CC1=O
- cytotoxicity call [1]: inactive
- cytotoxicity call [2]: inactive
- growth inhibition call [3]: inactive

Structure (SMILES): C[C@H](CO)N1C[C@H](C)[C@@H](CN(C)C(=O)Nc2ccc3c(c2)OCO3)Oc2ccc(NS(C)(=O)=O)cc2C1=O
- cytotoxicity call [1]: inactive
- cytotoxicity call [2]: inactive
- growth inhibition call [3]: inactive

Structure (SMILES): C[C@@H](CO)N1C(=O)[C@@H]2[C@H]3C(=O)OCCC=C[C@H]3O[C@]23C=CCN(Cn2nnc4ccccc42)C(=O)[C@@H]13
- cytotoxicity call [1]: inactive
- cytotoxicity call [2]: inactive
- growth inhibition call [3]: inactive

Structure (SMILES): CS(=O)(=O)Nc1ccc2c(c1)[C@H]1C[C@@H](CC(=O)NCC3CC3)O[C@@H](CO)[C@H]1O2
- cytotoxicity call [1]: inactive
- cytotoxicity call [2]: inactive
- growth inhibition call [3]: inactive

Structure (SMILES): CCC(C)C1OC2(C=CC1C)CC1CC(CC=C(C)C(OC3CC(OC)C(OC4CC(OC)C(O)C(C)O4)C(C)O3)C(C)C=CC=C3COC4C(OC)C(C)=CC(C(=O)O1)C34O)O2 (stereo not given)
- cytotoxicity call [1]: active
- cytotoxicity call [2]: active
- growth inhibition call [3]: inactive

Structure (SMILES): COc1ccc2c3c([nH]c2c1)[C@H](CO)N(C[C@]13CCN(CC1)C(=O)Nc1ccc(cc1)F)C(=O)c1ccc(cc1)F
- cytotoxicity call [1]: inactive
- cytotoxicity call [2]: inactive
- growth inhibition call [3]: inactive

Structure (SMILES): COc1cccc(NC(=O)N(C)C[C@H]2Oc3ncc(C#Cc4cccnc4)cc3C(=O)N([C@H](C)CO)C[C@@H]2C)c1
- cytotoxicity call [1]: inactive
- cytotoxicity call [2]: inactive
- growth inhibition call [3]: inactive

Structure (SMILES): C[C@@H]1CN([C@@H](C)CO)C(=O)c2cc(C#Cc3ccccc3F)cnc2O[C@H]1CN(C)C(=O)c1ccc2c(c1)OCO2
- cytotoxicity call [1]: inactive
- cytotoxicity call [2]: inactive
- growth inhibition call [3]: inactive

Structure (SMILES): COc1cc(Cc2cc3c(c(CCc4ccccc4)n2)[Si](C(C)C)(C(C)C)O[C@H]3c2ccccc2)cc(OC)c1OC
- cytotoxicity call [1]: inactive
- cytotoxicity call [2]: inactive
- growth inhibition call [3]: active

Structure (SMILES): COc1ccc(S(=O)(=O)N(C)C[C@H]2Oc3ncc(-c4ccncc4)cc3C(=O)N([C@@H](C)CO)C[C@@H]2C)cc1
- cytotoxicity call [1]: inactive
- cytotoxicity call [2]: inactive
- growth inhibition call [3]: inactive

Structure (SMILES): C[C@@H]1CN([C@@H](C)CO)C(=O)Cc2cc(NC(=O)CCC(F)(F)F)ccc2O[C@H]1CN(C)Cc1ccc(C(F)(F)F)cc1
- cytotoxicity call [1]: inactive
- cytotoxicity call [2]: inactive
- growth inhibition call [3]: inactive

Structure (SMILES): O=C(C[C@H]1CC[C@@H]2[C@H](COC[C@H](O)CN2S(=O)(=O)c2ccc(Oc3ccccc3)cc2)O1)NCCN1CCCCC1
- cytotoxicity call [1]: inactive
- cytotoxicity call [2]: inactive
- growth inhibition call [3]: inactive

Structure (SMILES): COc1ccc(C#Cc2cnc3c(c2)C(=O)N([C@H](C)CO)C[C@H](C)[C@H](CN(C)S(=O)(=O)c2ccccc2)O3)cc1OC
- cytotoxicity call [1]: inactive
- cytotoxicity call [2]: inactive
- growth inhibition call [3]: inactive

Structure (SMILES): C[C@@H]1CN([C@H](C)CO)C(=O)c2cccc(NS(C)(=O)=O)c2O[C@@H]1CN(C)C(=O)Nc1ccc2c(c1)OCO2
- cytotoxicity call [1]: inactive
- cytotoxicity call [2]: inactive
- growth inhibition call [3]: inactive

Structure (SMILES): C[C@@H]1CN([C@H](C)CO)C(=O)c2cc(NS(=O)(=O)c3cccs3)ccc2O[C@H]1CN(C)S(=O)(=O)c1cn(C)cn1
- cytotoxicity call [1]: inactive
- cytotoxicity call [2]: inactive
- growth inhibition call [3]: inactive

Structure (SMILES): COc1ccccc1S(=O)(=O)N(C)C[C@@H]1OCc2cn(nn2)CCCC(=O)N([C@@H](C)CO)C[C@@H]1C
- cytotoxicity call [1]: inactive
- cytotoxicity call [2]: inactive
- growth inhibition call [3]: inactive

Structure (SMILES): C[C@@H]1CCCCO[C@@H](CN(C)C(=O)c2ccccc2)[C@H](C)CN([C@H](C)CO)C(=O)c2cc(NS(=O)(=O)c3ccc(F)cc3)ccc2O1
- cytotoxicity call [1]: inactive
- cytotoxicity call [2]: inactive
- growth inhibition call [3]: inactive

Structure (SMILES): C[C@H]1CN([C@@H](C)CO)S(=O)(=O)c2ccc(Br)cc2O[C@H]1CN(C)Cc1ccccc1F
- cytotoxicity call [1]: inactive
- cytotoxicity call [2]: inactive
- growth inhibition call [3]: inactive

Structure (SMILES): COc1ccc(S(=O)(=O)N2C[C@@H](O)COC[C@H]3O[C@@H](CC(=O)NCCCN(C)C)CC[C@@H]32)cc1
- cytotoxicity call [1]: inactive
- cytotoxicity call [2]: inactive
- growth inhibition call [3]: inactive

Structure (SMILES): C[C@H]1CCCC[C@]12NC(=O)NC2=O
- cytotoxicity call [1]: inactive
- cytotoxicity call [2]: inactive
- growth inhibition call [3]: inactive

Structure (SMILES): COC(=O)/C=c1\sc2n(c1=O)CCN=2
- cytotoxicity call [1]: inactive
- cytotoxicity call [2]: inactive
- growth inhibition call [3]: inactive

Structure (SMILES): C[C@H]1CN([C@@H](C)CO)C(=O)Cc2cc(NS(C)(=O)=O)ccc2O[C@@H]1CN(C)Cc1ccc(C(=O)O)cc1
- cytotoxicity call [1]: inactive
- cytotoxicity call [2]: inactive
- growth inhibition call [3]: inactive

Structure (SMILES): CCNC(=O)C[C@@H]1C=C[C@H](NC(=O)C2CC2)[C@@H](CO)O1
- cytotoxicity call [1]: inactive
- cytotoxicity call [2]: inactive
- growth inhibition call [3]: inactive

Structure (SMILES): COc1ccc(CN(C)C[C@H]2OCCCC[C@H](C)Oc3ccc(NC(=O)NC(C)C)cc3C(=O)N([C@@H](C)CO)C[C@H]2C)cc1
- cytotoxicity call [1]: inactive
- cytotoxicity call [2]: inactive
- growth inhibition call [3]: inactive

Structure (SMILES): C[C@H]1CN([C@@H](C)CO)C(=O)c2cccc(NC(=O)c3cnccn3)c2O[C@H]1CN(C)Cc1ccccc1
- cytotoxicity call [1]: inactive
- cytotoxicity call [2]: inactive
- growth inhibition call [3]: inactive

Structure (SMILES): Nc1ccc(C(=O)[O-])c(O)c1.[Na+]
- cytotoxicity call [1]: inactive
- cytotoxicity call [2]: inactive
- growth inhibition call [3]: inactive

Structure (SMILES): COC(=O)Nc1nc2ccc(S(=O)c3ccccc3)cc2[nH]1 (stereo not given)
- cytotoxicity call [1]: inactive
- cytotoxicity call [2]: active
- growth inhibition call [3]: inactive

Structure (SMILES): COc1ccc(NC(=O)N(C)C[C@@H]2Oc3ccc(NC(=O)Nc4cccc5ccccc45)cc3CC(=O)N([C@@H](C)CO)C[C@@H]2C)cc1
- cytotoxicity call [1]: inactive
- cytotoxicity call [2]: inactive
- growth inhibition call [3]: inactive

Structure (SMILES): Cc1noc(C)c1S(=O)(=O)Nc1ccc2c(c1)CC(=O)N([C@H](C)CO)C[C@@H](C)[C@@H](CN(C)Cc1ccccc1)O2
- cytotoxicity call [1]: inactive
- cytotoxicity call [2]: inactive
- growth inhibition call [3]: inactive
